Out of some 310,000 compounds screened, about 2,200 (0.71%) showed an effect of 50% or more. Effects have a minus sign here. Some of the results follow.

For this assay, the target named is human ether-à-go-go-related gene (hERG) potassium channel (human, UniProt Q12809). Put plainly: primary screen, population patch clamp on CHO cells stably expressing hERG.
human ether-à-go-go-related gene (hERG) potassium channel, sequence (Q12809 whole entry, looked up): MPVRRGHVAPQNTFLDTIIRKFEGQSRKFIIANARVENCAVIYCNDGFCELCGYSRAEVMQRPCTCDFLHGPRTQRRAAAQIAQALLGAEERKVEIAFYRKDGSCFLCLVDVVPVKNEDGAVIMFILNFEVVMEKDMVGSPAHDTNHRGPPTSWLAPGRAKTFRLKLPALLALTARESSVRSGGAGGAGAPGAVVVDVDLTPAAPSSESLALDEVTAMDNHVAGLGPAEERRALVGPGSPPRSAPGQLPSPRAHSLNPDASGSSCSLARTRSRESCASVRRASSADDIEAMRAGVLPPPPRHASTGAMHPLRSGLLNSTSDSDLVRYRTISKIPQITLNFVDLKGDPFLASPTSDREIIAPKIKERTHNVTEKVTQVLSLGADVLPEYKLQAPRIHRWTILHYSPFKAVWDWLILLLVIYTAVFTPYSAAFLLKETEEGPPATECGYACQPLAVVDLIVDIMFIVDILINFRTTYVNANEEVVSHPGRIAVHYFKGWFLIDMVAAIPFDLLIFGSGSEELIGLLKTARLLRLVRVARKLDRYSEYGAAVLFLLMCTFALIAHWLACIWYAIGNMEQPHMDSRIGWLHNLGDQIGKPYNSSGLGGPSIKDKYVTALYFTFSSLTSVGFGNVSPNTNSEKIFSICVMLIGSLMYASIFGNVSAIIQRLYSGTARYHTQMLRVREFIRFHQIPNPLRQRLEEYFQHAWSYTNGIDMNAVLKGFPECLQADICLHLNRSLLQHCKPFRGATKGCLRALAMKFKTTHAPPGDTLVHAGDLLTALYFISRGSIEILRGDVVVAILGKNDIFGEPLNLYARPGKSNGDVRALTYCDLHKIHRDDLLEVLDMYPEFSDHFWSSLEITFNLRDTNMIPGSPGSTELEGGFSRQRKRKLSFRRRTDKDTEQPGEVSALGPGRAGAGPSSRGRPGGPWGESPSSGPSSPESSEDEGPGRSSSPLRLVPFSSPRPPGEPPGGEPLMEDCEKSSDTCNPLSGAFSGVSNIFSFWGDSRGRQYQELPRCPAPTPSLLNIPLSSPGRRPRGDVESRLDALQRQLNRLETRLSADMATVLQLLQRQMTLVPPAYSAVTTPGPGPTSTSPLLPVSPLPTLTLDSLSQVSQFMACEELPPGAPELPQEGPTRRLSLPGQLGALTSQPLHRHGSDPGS
Consider `Cc1cc(N2CCN(c3ccccc3)CC2)nc(-n2nc(C)cc2C)n1`, for which the “hERG current change (%, negative = inhibition) at 1uM” value was -51%.

As for `NNc1nc(N)c2c(n1)-c1ccccc1CC21CCCC1`, the “hERG current change (%, negative = inhibition) at 1uM” value is reported as 15.8%.

`CS(=O)(=O)N1CCC(C(=O)NCc2ccc3c(c2)OCO3)CC1`: the “hERG current change (%, negative = inhibition) at 1uM” value turned out to be 12%.

Take `COCC(C)NCc1ccc(C)cc1C` (stereo not shown): the “hERG current change (%, negative = inhibition) at 1uM” value is listed as -1.57%.

Take `Cc1cc(NC(=O)CSCC(=O)N(C)Cc2ccc(F)cc2)no1`: the “hERG current change (%, negative = inhibition) at 1uM” value worked out at 11.4%.

For the molecule `COc1ccc2c(c1)Sc1ccccc1N2CCN(C)C.O=C(O)C(=O)O`, the “hERG current change (%, negative = inhibition) at 1uM” value was 2.44%.

Consider `COc1ccc(OC)c(S(=O)(=O)Nc2ccc(Oc3ccccc3)cc2)c1`, for which the “hERG current change (%, negative = inhibition) at 1uM” value is reported as -7.69%.

As for `Cc1ccc(-c2nc3ccccc3[nH]2)s1`, the “hERG current change (%, negative = inhibition) at 1uM” value is given as -7.75%.

Consider `C=CCC(C(=O)OC)(C(=O)OC)c1ccccc1[N+](=O)[O-]`, for which the “hERG current change (%, negative = inhibition) at 1uM” value is on record as 5.41%.

Take `CC12CC3CC(C)(C1)CC(CN)(C3)C2.Cl`: the “hERG current change (%, negative = inhibition) at 1uM” value stood at 2.2%.

Consider `COc1ccccc1-c1nnc(SC/C(O)=C(\C#N)c2nc3ccccc3[nH]2)n1C1CCCCC1`, for which the “hERG current change (%, negative = inhibition) at 1uM” value was 10.8%.

With `CC(C)CNC(=O)[C@H](Cc1ccccc1)NC(=O)c1ccco1`, the “hERG current change (%, negative = inhibition) at 1uM” value is on record as -4.95%.

As to `COc1ccc(N(C)C(=O)Cc2c(C(=O)O)n(C)c3ccccc23)c(OC)c1`, the “hERG current change (%, negative = inhibition) at 1uM” value worked out at 20.9%.

Turning to `Cc1ccc(-c2nnc(Nc3ccccc3)c3ccccc23)cc1S(=O)(=O)NCC1CCCO1` (stereo not shown), the “hERG current change (%, negative = inhibition) at 1uM” value was -4.57%.

For `N#Cc1cnn2c(C(F)(F)F)c3c(nc12)CCCC3`, the “hERG current change (%, negative = inhibition) at 1uM” value turned out to be 7.64%.

In the case of `CC(C)c1ccc(C2C(C#N)=C(N)N3C(=C2C#N)Sc2ccccc23)cc1` (stereo not shown), the “hERG current change (%, negative = inhibition) at 1uM” value is listed as 15.9%.

Turning to `CN1CCN(CC#CCOc2ccc(Cl)cc2)CC1.O=C(O)C(=O)O`, the “hERG current change (%, negative = inhibition) at 1uM” value is reported as 13.5%.

Take `C/C(N)=C(/C#N)C(=O)COC(=O)CNS(=O)(=O)c1ccc2ccccc2c1`: the “hERG current change (%, negative = inhibition) at 1uM” value amounted to 11.9%.

On to `COc1ccc(Br)cc1C(C[N+](=O)[O-])c1c(N)n(C)c(=O)n(C)c1=O` (stereo not shown), for which the “hERG current change (%, negative = inhibition) at 1uM” value was 9.81%.

Take `COc1ccc(/C=C/c2c(-c3ccc(OC)cc3)sc3ccc(N4CCOCC4)cc23)cc1`: the “hERG current change (%, negative = inhibition) at 1uM” value stood at 8.46%.

Regarding `CCc1ccc(-c2cc(C)no2)cc1S(=O)(=O)NCc1ccccc1OC`, the “hERG current change (%, negative = inhibition) at 1uM” value was found to be 16.2%.

For the molecule `Cc1cc(S(=O)(=O)N2CCOCC2)ccc1OCC(=O)N1CCCC1`, the “hERG current change (%, negative = inhibition) at 1uM” value was found to be 15.4%.

As to `CCC(=O)N/C(N)=N/c1nc(C)c2cc(C)c(C)cc2n1`, the “hERG current change (%, negative = inhibition) at 1uM” value is 13.6%.

Take `CC(Cc1n[nH]c(=S)n1N)c1ccccc1` (stereo not shown): the “hERG current change (%, negative = inhibition) at 1uM” value stood at 16.3%.

`CCOC(=O)c1cnn(-c2ncnc3c2oc2ccccc23)c1N`: the “hERG current change (%, negative = inhibition) at 1uM” value stood at 11.6%.

Take `CCOC(=O)C1C(c2cc(OC)c(O)c(OC)c2)NC(=S)NC1(O)C(F)(F)F` (stereo not shown): the “hERG current change (%, negative = inhibition) at 1uM” value was found to be 7.44%.

Consider `CN(C1=NC(=O)C(CC(=O)Nc2ccc(Br)cc2)S1)c1ccc(O)cc1` (stereo not shown), for which the “hERG current change (%, negative = inhibition) at 1uM” value is recorded as -12.2%.

Regarding `CC1CCc2nc3ccc(S(=O)(=O)N4CCC(C(=O)O)CC4)cc3c(C(=O)O)c2C1` (stereo not shown), the “hERG current change (%, negative = inhibition) at 1uM” value was 9.69%.

In the case of `O=C(O)CSCC(=O)Nc1ccc(S(=O)(=O)N2CCCCC2)cc1`, the “hERG current change (%, negative = inhibition) at 1uM” value is given as -2.03%.

Consider `CCn1c(Cc2cccs2)nnc1SCC(=O)NC(C)(C)C`, for which the “hERG current change (%, negative = inhibition) at 1uM” value worked out at 5.35%.

In the case of `CCn1c2ccccc2c2cc(NC(=O)COC(=O)c3ccc(O)cc3)ccc21`, the “hERG current change (%, negative = inhibition) at 1uM” value turned out to be 13.2%.

In the case of `COc1cc(C(=O)N2CCC(n3cnc4cc(F)ccc43)CC2)cc(OC)c1OC`, the “hERG current change (%, negative = inhibition) at 1uM” value is recorded as -9.25%.

For the molecule `O=C1CN(S(=O)(=O)c2cccc(Cl)c2Cl)c2ccccc2N1`, the “hERG current change (%, negative = inhibition) at 1uM” value came out at 13.3%.

With `Cc1nc([N+](=O)[O-])cn1CC(=O)Nc1ccc([N+](=O)[O-])cc1`, the “hERG current change (%, negative = inhibition) at 1uM” value is recorded as 10.2%.

`Cc1ccc(-c2nc(C3CCN(S(C)(=O)=O)CC3)no2)cc1`: the “hERG current change (%, negative = inhibition) at 1uM” value is recorded as 10.3%.

Turning to `Cc1ccccc1OCCC(=O)OCC(=O)c1c(N)n(CC(C)C)c(=O)n(C)c1=O`, the “hERG current change (%, negative = inhibition) at 1uM” value is recorded as -63.8%.

On to `O=C(O)c1cc(-n2cccc2)ccc1N1CCOCC1`, for which the “hERG current change (%, negative = inhibition) at 1uM” value is on record as 7.77%.

As for `Nc1ncc([N+](=O)[O-])cc1S(=O)(=O)c1ccccc1`, the “hERG current change (%, negative = inhibition) at 1uM” value worked out at 14.4%.

In the case of `CC(=NCc1ccc2c(c1)OCO2)c1c(O)n(C)c(=O)n(C)c1=O`, the “hERG current change (%, negative = inhibition) at 1uM” value turned out to be 0.351%.

For `COc1ccc(C(=O)Nc2nnc(C)s2)cc1S(=O)(=O)N1CCOCC1`, the “hERG current change (%, negative = inhibition) at 1uM” value came to 2.79%.

For `Oc1oc(-c2ccccc2Br)nc1C=Nc1ccc(Br)cn1`, the “hERG current change (%, negative = inhibition) at 1uM” value was determined as 14.5%.

Consider `N#Cc1ccc(OC(=O)Cc2ccsc2)cc1`, for which the “hERG current change (%, negative = inhibition) at 1uM” value came to 18%.

With `Clc1ccc2scc(CN3CCCC3)c2c1`, the “hERG current change (%, negative = inhibition) at 1uM” value was 10.7%.

Take `c1ccc(-c2nc(NCC3CCCO3)c3ccccc3n2)nc1` (stereo not shown): the “hERG current change (%, negative = inhibition) at 1uM” value is recorded as -14.1%.

For the molecule `CC(=O)Nc1ccc(S(=O)(=O)N2CCC(c3nc4ccccc4[nH]3)CC2)cc1`, the “hERG current change (%, negative = inhibition) at 1uM” value is -4.27%.

On to `C/C(=N\NC(=O)c1cccc(O)c1)c1ccc(NC(=O)Cc2ccccc2)cc1`, for which the “hERG current change (%, negative = inhibition) at 1uM” value was -19.1%.

For the molecule `CC1(C)CC(=O)C(CCC(=O)c2ccccc2)C(C)(C)N1` (stereo not shown), the “hERG current change (%, negative = inhibition) at 1uM” value was determined as 7.76%.

As for `CC(NC(=O)CN(C1CCCCC1)S(C)(=O)=O)c1ccccc1` (stereo not shown), the “hERG current change (%, negative = inhibition) at 1uM” value is on record as 7.88%.

`COc1ccc(-c2nc(CS(=O)CC(=O)NCc3cccnc3)c(C)o2)cc1OC` (stereo not shown): the “hERG current change (%, negative = inhibition) at 1uM” value is listed as 9.73%.

For `CCOC(=O)c1[nH]c(C)c(C(=O)N(CC)CC)c1C`, the “hERG current change (%, negative = inhibition) at 1uM” value was determined as 8.76%.

`Cc1c(Cl)cccc1-n1c(-c2cccnc2)n[nH]c1=S`: the “hERG current change (%, negative = inhibition) at 1uM” value is 16.6%.

For `Cl.Fc1ccc(CN2C3=NCCCN3c3ccccc32)cc1`, the “hERG current change (%, negative = inhibition) at 1uM” value is reported as -32.8%.

For `C/C(N)=C(/C#N)C(=O)CSc1nnc(Nc2c(C)cccc2C)s1`, the “hERG current change (%, negative = inhibition) at 1uM” value was 12.6%.

Take `CCN(c1ccccc1)P(=O)(Nc1ccccc1)Nc1ccccc1`: the “hERG current change (%, negative = inhibition) at 1uM” value came to 7.98%.

Regarding `CCOC(=O)CC1C(=O)NCCN1C(=O)c1ccc(C)cc1` (stereo not shown), the “hERG current change (%, negative = inhibition) at 1uM” value turned out to be 14.6%.

In the case of `CCSc1ncnc2c1sc1nc3c(cc12)COC(C)(C)C3`, the “hERG current change (%, negative = inhibition) at 1uM” value came to 3.34%.

Take `Cc1cc(C)nc(NC(=O)CN2C(=O)c3ccccc3S2(=O)=O)n1`: the “hERG current change (%, negative = inhibition) at 1uM” value is -0.221%.

Take `C=CCn1c(SCC(=O)Nc2sccc2C(N)=O)nc2ccc(Cl)cc2c1=O`: the “hERG current change (%, negative = inhibition) at 1uM” value is 1.53%.

The record behind these values is PMC4336329 (PLoS ONE, 2015).
